# From patent US20250214977A1, “STAT6 INHIBITORS AND USES THEREOF” (Kymera Therapeutics, Inc., priority 2024, published 2025)
# Target: T1, biotinylated truncated STAT6 (123-632)-avi (Homo sapiens, UniProt P42226)
# T1 sequence (P42226 123-632 limits assumed): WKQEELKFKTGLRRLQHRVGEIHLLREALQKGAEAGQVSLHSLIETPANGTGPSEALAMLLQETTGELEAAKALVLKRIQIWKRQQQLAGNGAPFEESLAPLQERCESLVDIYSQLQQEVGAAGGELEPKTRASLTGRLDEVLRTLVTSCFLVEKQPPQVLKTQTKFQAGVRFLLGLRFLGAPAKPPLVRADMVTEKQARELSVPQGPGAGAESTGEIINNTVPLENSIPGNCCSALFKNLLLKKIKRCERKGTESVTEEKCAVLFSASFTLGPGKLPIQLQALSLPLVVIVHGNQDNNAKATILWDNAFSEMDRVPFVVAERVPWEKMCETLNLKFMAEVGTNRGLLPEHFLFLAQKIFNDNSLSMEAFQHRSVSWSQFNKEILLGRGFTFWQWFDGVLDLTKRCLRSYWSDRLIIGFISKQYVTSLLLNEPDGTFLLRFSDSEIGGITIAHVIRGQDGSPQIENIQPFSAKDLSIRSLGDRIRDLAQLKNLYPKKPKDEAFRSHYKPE
# Experiment: Homogenous Time-Resolved Fluorescence (HTRF) binding assay
# Details: 0.15 nM biotinylated truncated STAT6 (123-632)-avi, 20 nM fluorescein-labeled probe
Structure (SMILES),IC50 (30 minutes at room temperature),IC50 (30 minutes room temperature)
COc1ccccc1-c1cc(C2=CCCN(C(=O)CCn3ccnn3)C2)c(F)c2[nH]c(C(=O)N3CCN(CCCF)CC3)cc12 [Example I-843],< 100 nM,
COc1cc(F)cnc1N1CCN(C(=O)c2cc3c(-c4ccnc(F)c4OC)cc(C4=CCCN(C(=O)CCn5ccnn5)C4)c(F)c3[nH]2)CC1 [Example I-656],< 100 nM,
CN(C)C(=O)c1cc2c(-c3ccccc3Cl)cc(C3=CCCN(C(=O)CCn4ccnn4)C3)cc2[nH]1 [Example I-1679],,< 100 nM
COc1ccccc1-c1cc(C2=CCCN(C(=O)CCn3ccnn3)C2)c(F)c2[nH]c(C(=O)N3CCN(c4ncc(C5CC5)cc4OC)CC3)cc12 [Example I-354],100 to 1000 nM,
COc1ccccc1-c1cc(C2=CCCN(C(=O)CCn3ccnn3)C2)c(F)c2[nH]c(C(=O)N3CC(C(F)F)C3)cc12 [Example I-1550],,100 to 1000 nM
CN(C)C(=O)c1cc2ccc(C3=CCCN(C(=O)c4c[nH]nc4I)C3)cc2[nH]1 [Example I-34],10000 to 100000 nM,
O=C(CCn1ccnn1)N1CCCC(n2ccc3cc(-c4ccccn4)ccc32)C1 (centres unmarked) [Example I-1307],,10000 to 100000 nM
COc1cccnc1N1CCN(C(=O)c2cc3c(-c4cccnc4OC)cc(C4=CCCN(C(=O)CCn5ccnn5)C4)c(F)c3[nH]2)CC1 [Example I-410],< 100 nM,
COc1ccccc1-c1cc(C2=CCCN(C(=O)CCn3ccnn3)C2)c(F)c2[nH]c(C(=O)N3CCC4(CC3)OC(=O)Nc3ncccc34)cc12 [Example I-1390],,< 100 nM
CN(C)C(=O)c1cc2c(-c3cc(C(F)(F)F)ccc3Cl)cc(C3=CCCN(C(=O)CCn4ccnn4)C3)cc2[nH]1 [Example I-1670],,100 to 1000 nM
CC(=O)N1CCC=C(c2cc(-c3ccc(CO)cc3)c3cc(C(=O)N(C)C)[nH]c3c2F)C1 [Example I-1496],,100 to 1000 nM
CCOc1ccc(-c2cc(C3=CCCN(C(=O)CCn4ccnn4)C3)c(F)c3[nH]c(C(=O)N4CCN(c5ncc(F)cc5OC)CC4)cc23)c(OC)c1 [Example I-661],< 100 nM,
Cc1c[nH]c2ncc(-c3cc(C4=CCCN(C(=O)CCn5ccnn5)C4)cc4cc(C(=O)N(C)C)oc34)cc12 [Example I-1085],< 100 nM,
COc1ccccc1-c1cc(C2=CCCN(C(=O)CCn3ccnn3)C2)c(F)c2[nH]c(C(=O)N3CCCN(C(=O)c4ccco4)CC3)cc12 [Example I-1520],,< 100 nM
COc1cc2c(-c3cc(C4=CCCN(C(=O)CCn5ccnn5)C4)c(F)c4[nH]c(C(=O)N5CCN(c6ncc(F)cc6OC)CC5)cc34)ccnc2cc1F [Example I-691],< 100 nM,
CC(=O)N1CCC=C(c2cc(-c3ccc(-n4ccnn4)cc3)c3cc(C(=O)N(C)C)[nH]c3c2F)C1 [Example I-1503],,100 to 1000 nM
"CN(C)C(=O)c1cc2cc([C@H]3CN(C(=O)CCn4ccnn4)CC[C@@H]3O)ccc2o1 (single isomer, unassigned) [Example I-210]",10000 to 100000 nM,
COc1ccccc1-c1cc(C2=CCCN(C(=O)CCn3ccnn3)C2)c(F)c2[nH]c(C(=O)N3CCN(c4ccc(C(F)(F)F)c(Cl)n4)CC3)cc12 [Example I-1543],,1000 to 10000 nM
COc1ccccc1-c1cc(C2=CCCN(C(=O)CCn3ccnn3)C2)c(F)c2[nH]c(C(=O)N3CCN(c4ccccc4F)CC3)cc12 [Example I-418],< 100 nM,
COc1ccccc1-c1cc(C2=CCCN(C(=O)CCn3ccnn3)C2)c(F)c2[nH]c(C(=O)N3CCN(c4ccccc4OC(F)(F)F)CC3)cc12 [Example I-420],100 to 1000 nM,
O=C(CCn1ccnn1)N1CCC=C(c2ccc3oc(-c4ccncc4)cc3c2)C1 [Example I-1283],,10000 to 100000 nM
COc1ccccc1-c1cc(C2=CCCN(C(=O)CCn3ccnn3)C2)c(F)c2[nH]c(C(=O)N3CCc4nocc4C3)cc12 [Example I-1029],< 100 nM,

Structure (SMILES),IC50 (30 minutes at room temperature),IC50 (30 minutes room temperature)
CN(C)C(=O)c1cc2cc(C3=CCCN(C(=O)Cc4coc5ccccc45)C3)ccc2o1 [Example I-271],10000 to 100000 nM,
CCOC(=O)CC(=O)N1CCC=C(c2cc3cc(C(=O)N4CCN(c5ncc(F)cc5OC)CC4)cc(-c4ccc(C)nc4CC)c3n2CC2CC2)C1 [Example I-1173],100 to 1000 nM,
CN(C)C(=O)c1cc2cc(C3=CCCN(C(=O)CCn4ccnn4)C3)ccc2s1 [Example I-243],1000 to 10000 nM,
CN(C)C(=O)c1cc2ccc(C3=CCCN(C(=O)[C@@H]4C[C@H](c5ccccc5)CN4)C3)cc2[nH]1 [Example I-76],10000 to 100000 nM,
CCc1ccccc1N1CCN(C(=O)c2cc3c(-c4ccccc4OC)cc(C4=CCCN(C(=O)CCn5ccnn5)C4)c(F)c3[nH]2)CC1 [Example I-969],100 to 1000 nM,
COc1ccccc1-c1cc(C2=CCCN(C(=O)CCn3ccnn3)C2)c(F)c2[nH]c(C(=O)N3Cc4cccc(F)c4C3)cc12 [Example I-982],> 100000 nM,
COc1ccncc1-c1cc(C2=CCCN(C(=O)CCn3ccnn3)C2)c(F)c2[nH]c(C(=O)N3CCN(c4ncc(Cl)cc4OC)CC3)cc12 [Example I-458],< 100 nM,
CCc1ccccc1-c1cc(C2=CCCN(C(=O)CCn3ccnn3)C2)c(F)c2[nH]c(C(=O)N3CCN(c4ncc(F)cc4OC)CC3)cc12 [Example I-665],< 100 nM,
COc1ccccc1-c1cc(C2=CCCN(C(=O)CCn3ccnn3)C2)c(F)c2[nH]c(C(=O)N3CCN(c4cc(C#N)cc5[nH]ccc45)CC3)cc12 [Example I-771],< 100 nM,
CN(C)C(=O)c1cc2ccc(C3=CCCN(C(=O)CCc4ccc(C(N)=O)cc4)C3)c(F)c2[nH]1 [Example I-1233],,< 100 nM
Cc1ccc(Cl)c(-c2cc(C3=CCCN(C(=O)CCn4ccnn4)C3)cc3[nH]c(C(=O)N(C)C)cc23)c1 [Example I-1061],< 100 nM,
CCCCCCc1cc(C2=CCCN(C(=O)CCn3ccnn3)C2)c(F)c2[nH]c(C(=O)N3CCN(c4ncc(F)cc4OC)CC3)cc12 [Example I-695],> 100000 nM,
CN(C)C(=O)c1cc2ccc(C3=CCCN(C(=O)c4ccc(O)c(F)c4)C3)cc2[nH]1 [Example I-48],10000 to 100000 nM,
COCCOc1cccnc1N1CCN(C(=O)c2cc3c(-c4ccccc4OC)cc(C4=CCCN(C(=O)CCn5ccnn5)C4)c(F)c3[nH]2)CC1 [Example I-330],< 100 nM,
COc1ccc(C)cc1-c1cc(C2=CCCN(C(=O)C3Cc4ccccc4CN3C=O)C2)cc2cc(C(=O)N(C)C)oc12 (centres unmarked) [Example I-1197],100 to 1000 nM,
COc1cc(F)cnc1N1CCN(C(=O)c2cc3c(-c4cnn(-c5ccccc5)c4C)cc(C4=CCCN(C(=O)CCn5ccnn5)C4)c(F)c3[nH]2)CC1 [Example I-625],< 100 nM,
CCc1cc(C)ncc1-c1cc(C2=CCCN(C(=O)CC(=O)O)C2)c(F)c2[nH]c(C(=O)N3Cc4cnn(CC)c4C3)cc12 [Example I-788],< 100 nM,
COc1ncccc1-c1cc(C2=CCCN(C(=O)CCn3ccnn3)C2)c(F)c2[nH]c(C(=O)N3CCN(C4CC4)CC3)cc12 [Example I-602],< 100 nM,
CCc1ccncc1-c1cc(C2=CCCN(C(=O)CCn3ccnn3)C2)c(F)c2[nH]c(C(=O)N3Cc4cnn(C)c4C3)cc12 [Example I-704],10000 to 100000 nM,
CCc1cnccc1-c1cc(C(=O)N2Cc3cnn(C)c3C2)cc2c(F)c(C3CCCN(C(=O)CC(=O)O)C3)n(CC3CC3)c12 (centres unmarked) [Example I-1257],,10000 to 100000 nM
COc1cccc(C)c1-c1cc(C2=CCCN(C(=O)CCn3ccnn3)C2)cc2[nH]c(C(=O)N(C)C)cc12 [Example I-1666],,< 100 nM
CCc1cc(C)ncc1-c1cc(C2=CCCN(C(=O)CCn3ccnn3)C2)c(F)c2[nH]c(C(=O)N3CCN(c4ccc(F)cc4OC)CC3)cc12 [Example I-739],< 100 nM,
